This note sets out measurements from PubChem BioAssay (NCI).

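Five concentrations, 48 hours, 96-well plates. At the GI50, growth is halved. TGI: total growth inhibition.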

The assay has as its system NCI-H322M lung. Kind of assay: DTP human tumour cell line panel, 48 h.
For `N#Cc1cc2c(n(C3OC(CO)C(O)C(O)C3O)c1=S)CCCCC2` (stereo unspecified), the TGI – broadly, the concentration giving total growth inhibition – is > 100 µM.
Consider `CCC(C#N)N(Cc1ccc(CN(C(=O)c2ccccc2)C(C#N)CC)cc1)C(=O)c1ccccc1` (stereo unspecified), for which the TGI was > 100 µM.
The compound `O=C(COC(c1ccc(F)cc1)c1ccc(F)cc1)N1CCN(CCCc2ccccc2)CC1` showed a TGI of 15.6 µM.
As for `COc1c(Nc2ncc(Cl)c(N[C@@H]3[C@H]4C=CC(C4)[C@@H]3C(N)=O)n2)ccc2c1CC[C@@H](N1CCOCC1)CC2`, the GI50 (in general, the concentration at which growth is held to half of that of the control) is 4.48 µM and the TGI was 39 µM.
In the case of `O=c1oc2ccccc2c(-c2ccc(O)cc2)c1Oc1ccc(Cl)cc1`, the TGI is > 100 µM.
In the case of `O=C(Nc1cccc(-n2cc(-c3ccncc3)c(-c3cc(O)cc(Cl)c3)n2)c1)Nc1ccc(Cl)c(Cl)c1`, the GI50 is 1.78 µM and the TGI came out at 7.81 µM.
`O=[n+]1cnn([O-])c2ccccc21`: the TGI is > 100 µM.
As for `COC(=O)C(C(=O)C(=O)Nc1c(Cl)cc([N+](=O)[O-])cc1Cl)c1nc2cc(C)c(C)cc2[nH]c1=O` (stereo unspecified), the TGI is > 100 µM.
With `N#Cc1ccc(Nc2cnc3cc(N)ccc3n2)cc1`, the TGI is > 100 µM.
As to `CC1=C(C(=O)OCCc2ccc([N+](=O)[O-])cc2)C(c2ccccc2C(F)(F)F)C(C(=O)OC(C)C)=C(C)N1` (stereo unspecified), the TGI is > 100 µM.
Consider `O=C1OCC2=C1C(c1cccc([N+](=O)[O-])c1)c1cc3c(cc1N2CCO)CCC3` (stereo unspecified), for which the GI50 was 0.378 µM and the TGI was > 50 µM.
On to `O=C(Nc1cccnc1)c1cccs1`, for which the GI50 was > 100 µM and the TGI is > 100 µM.
`Cc1cc(N2CCOCC2)nc(N(CCCNc2ccnc3cc(Cl)ccc23)Cc2ccc3c(c2)OCO3)n1`: the GI50 is 1.9 µM and the TGI amounted to 5.91 µM.
`CC(=O)OCC1OC(O[C@@H]2C[C@H]3C(C)(C)[C@H](OC(C)=O)CC[C@]3(C)[C@H]3CC[C@@]45C[C@H](O)C[C@H](C)[C@@H]4CC=C5[C@@]32C)C(O)C(O)C1O` (stereo partly specified) registered a TGI of 21.1 µM.
On to `CCCCCCCCC(=O)CCCCCCCCC(=O)O`, for which the TGI was determined as 47.9 µM.
Take `N#Cc1cc(-c2ccccc2)[nH]c1-c1nccc2ccccc12`: the GI50 was 53.9 µM and the TGI is > 100 µM.
For `CCOC(=O)CC/C(C)=N\n1c(Cc2ccc(Cl)cc2)n[nH]c1=O`, the TGI is > 100 µM.
Turning to `COC(OC)C1(c2ccccc2)Oc2ccccc2C1=O` (stereo unspecified), the TGI was > 100 µM.
For `O=C1OCC2=C1C(c1ccccc1)c1cc3c(cc1N2CCO)CCC3` (stereo unspecified), the GI50 was 0.21 µM and the TGI was > 25 µM.
In the case of `NC(CCc1ccccc1)(C(=O)O)c1ccccc1` (stereo unspecified), the TGI was > 100 µM.
Same read-out and setting: under `Oc1c(Cl)ccc2cccnc12` stands > 100 µM.
Consider `[Ce+3].[Cl-].[O-]/N=C(\c1ccccc1)c1ccccn1.[O-]/N=C(\c1ccccc1)c1ccccn1.[O-]/N=C(\c1ccccc1)c1ccccn1`, for which the GI50 was 37.7 µM and the TGI was > 100 µM.
As to `Cc1cc(C)c2c(=O)n(CN3CCN(c4ccccc4)CC3)sc2n1`, the TGI is > 100 µM.
For the compound `CN(C)S(=O)(=O)n1ccnc1`, the TGI was > 100 µM.
Consider `C[C@@]12C[C@@H](c3ccccc3O1)N1CCSC1=N2`, for which the TGI is > 100 µM.
Turning to `C=C1CCCC(C)(C)[C@@H]1CC/C(C)=C/Cn1c2cccc(=O)c-2nc2ccccc21`, the GI50 is 17.9 µM.
Consider `Cc1cc(NC(=O)NC(=O)c2ccccc2[N+](=O)[O-])ccc1Oc1ncc(Cl)cn1`, for which the TGI was determined as 32.7 µM.
Regarding `CCOC(=O)C(C)OC(=O)c1ccc(C)cc1` (stereo unspecified), the TGI was > 100 µM.
With `CCC1(O)C(=O)OCc2c1cc1n(c2=O)Cc2c-1nc1ccccc1c2OC` (stereo unspecified), the TGI was found to be 2.59 µM.
The same measure, in the same setting: under `Cn1ccnc1SC(F)(F)c1nc2ccccc2o1` stands > 100 µM.
The same measure, in the same setting: under `CC(=O)c1cc2c3c(c1)c1cc4c(cc1c(=O)n3CC2)OCO4` stands > 100 µM; under `O=[N+]([O-])c1ccccc1S(=O)(=O)c1ccccc1[N+](=O)[O-]`, > 100 µM.
For the compound `Cc1cc(=O)[nH]c(CNC(=O)c2cccc3ccccc23)n1`, the TGI was > 100 µM.
In the case of `Cc1nc(NC(=O)COc2cccc(/C=C3\COc4ccccc4C3=O)c2)sc1C`, the GI50 is 4.42 µM and the TGI was determined as 12.3 µM.
In the same order, the values of `CN(C)c1cc2c(Nc3ccc4nc(Cc5ccccc5)[nH]c4c3)ncnc2cn1` are 14.8 µM and > 25 µM.
On to `COc1cc(S(=O)(=O)N/N=C/C=C/c2ccccc2)c(OC)cc1NC(C)=O`, for which the TGI is > 100 µM.
Turning to `NC1=NN(c2ccccc2)C(=O)C1C(=O)C(=O)NC1C2CC3CC(C2)CC1C3` (stereo unspecified), the TGI was > 100 µM.
The compound `CC(C)Cc1ccc(C(C)/C=C2\CCC(CN3CCOCC3)C2=O)cc1` (stereo unspecified) yielded a TGI of 32.5 µM.
On the same count and under the same terms, under `Cc1ccc(/C=C/C(=O)c2sc(C(N)=S)nc2C)cc1` stands > 100 µM.
With `NCC(=O)Nc1ccc(-n2nc(C(F)(F)F)cc2-c2ccc3c(ccc4ccccc43)c2)cc1`, the GI50 is 1.46 µM and the TGI stood at 2.81 µM.
Compound `CC(C)(C)OC(=O)N1C(C2=COc3ccccc3O2)=COc2cccnc21` had a TGI of 4.62 µM.
As for `Nc1ccccc1S(=O)c1ccccc1` (stereo unspecified), the TGI was > 100 µM.
For `Clc1cccc(Cn2cc(Cc3cn(Cc4cccc(Cl)c4)c4ccccc34)c3ccccc32)c1`, the GI50 is > 100 µM and the TGI is > 100 µM.
On to `O=c1oc2c(ccc3occc32)c(N2CCCCC2)c1-c1ccccc1`, for which the TGI is > 100 µM.
For `COc1ccc(C2Cc3cc(OC)c(OC)c(OC)c3C2=O)cc1` (stereo unspecified), the TGI was > 100 µM.
On the same count and under the same terms, under `O=S1c2ccccc2N=C(c2ccc3ccccc3c2)CC1c1ccccc1` (stereo unspecified) stands > 100 µM; under `CC1=NN(c2cccc(Cl)c2)C(=N/c2nc3ccccc3s2)/C1=C\C=C\c1ccccc1`, > 100 µM.
For the compound `O=C(O)c1cnccc1-c1cc(=O)[nH]n1-c1ccccc1`, the TGI is > 100 µM.
With `CCCCN(CCCC)c1cc(C(=O)CCCCCN)c2ccccc2n1`, the GI50 was 2.55 µM and the TGI is 6.47 µM.
Compound `C#CCn1c(=O)c(C)cn(/C(=C/C(=O)OCC)C(=O)OCC)c1=O` displayed a TGI of 42.2 µM.
Turning to `C/C(=C/CNc1ncnc2c1ncn2CCC(=O)O)CO`, the TGI was > 100 µM.
As to `CCOC(=O)[C@H](Cc1ccccc1)NC(=O)c1nc[nH]c1[N+](=O)[O-]`, the TGI was > 100 µM.
Same read-out and setting: under `CSc1sc(C)cc1-c1nsc(=O)o1` stands > 100 µM; under `CC(/C=C/C=C/C=C/C=C/C=C/C(O)=C1/C(=O)C(CCC(=O)O)N(C)C1=O)=C\C(C)C(OC1CC(O)C(O)C(C)O1)C(C)C` (stereo unspecified), 6.24 µM; under `COC(=O)c1c(O)ccc2c1c1c(n2Cc2ccccn2)C(=O)c2ccccc2C1`, > 100 µM.
In the case of `Cc1cc(=O)cc2sc3cc(Cl)ccc3nc1-2`, the TGI is > 85.1 µM.
Take `COc1cc2c3c(n(CCCN=[N+]=[N-])c(=O)c2cc1OC)-c1ccc(N)cc1C3=O`: the GI50 was 0.483 µM and the TGI came to 2.08 µM.
`NC(=S)SC1=NNC2(C(=O)N1)c1ccccc1-c1ccccc12`: the TGI is > 10 µM.
On to `CC(C)=CCC/C(C)=C/CC/C(C)=C/[C@@H]1[C@@H](CO)[C@]1(C)CC/C=C(\C)CCC=C(C)C`, for which the TGI was > 100 µM.
For the compound `C/C(=N\N=C(\N)OB(F)F)c1ccccn1`, the TGI was > 100 µM.
In the case of `CCOC(=O)NC(=O)c1cn(CCCCCCCCCCC(=O)N2CCN(CCn3cc(C(=O)NC(=O)OCC)c(=O)[nH]c3=O)CC2)c(=O)[nH]c1=O`, the TGI was > 100 µM.
As for `CC(=O)O[C@@]12[C@@H]3O[C@@]4(O)C[C@]5(C)[C@H]6C[C@@](C(C)C)(O[C@H]5c5ccoc5)O[C@H]1[C@]6(C4)O[C@]2(O)C(C)=CC3(C)C`, the TGI is > 100 µM.
On to `NC(=O)c1ncn(C2OC(CO)C(O)C2O)n1` (stereo unspecified), for which the GI50 is 60.1 µM and the TGI is > 100 µM.
Take `O=C1CCCCC1C1(O)C(=O)Nc2cc(F)ccc21` (stereo unspecified): the TGI is > 100 µM.
As to `CSc1nc2nc(C)c(C)nc2c(=O)[nH]1`, the TGI was > 100 µM.
As to `Cc1ccc(NC(=O)C2C(=O)C(=O)N(c3ccc(C)cc3)C2=O)cc1` (stereo unspecified), the TGI was > 100 µM.
As for `COc1cccc(N=N/C(=N/NC(=O)c2cc(Cl)ccc2O)c2ccc(N(CCC#N)CCC#N)cc2C)c1`, the TGI is > 100 µM.
For `Nc1ccc(-c2nc3cc(F)ccc3s2)cc1Br`, the TGI is > 100 µM.
For the compound `C[C@H]1O[C@@H](O[C@H]2[C@@H](O)C[C@H](O[C@H]3[C@@H](O)C[C@H](O[C@H]4CC[C@]5(C)C6C[C@@H](O)[C@]7(C)[C@@H](C8=CC(=O)OC8)CC[C@]7(O)C6CC[C@@H]5C4)O[C@@H]3C)O[C@@H]2C)C[C@H](O)[C@@H]1O` (stereo partly specified), the GI50 was 0.0757 µM and the TGI is 0.393 µM.
As to `O=S1Cc2ccccc2CS1` (stereo unspecified), the TGI was > 100 µM.
For the compound `CNC(=S)NNC1=NCCCN1`, the TGI was > 100 µM.
In the case of `CCCCCCCCCCCCCCCCc1c(C(=O)OC)[nH]c(=S)[nH]c1=O`, the TGI is > 50 µM.
With `C=CC1(c2ccc(Cl)c(Cl)c2)OCCO1`, the TGI is > 100 µM.
For the compound `Cc1ccccc1NC(=O)N/C(N)=N/c1nc2ccccc2s1`, the GI50 is 0.279 µM and the TGI is > 100 µM.
Consider `CC(=O)N(/N=C\c1ccc([N+](=O)[O-])cc1)c1ccccc1`, for which the TGI is > 100 µM.
In the case of `Cc1cc(C)nc(NC(=S)Nc2cccc(Cl)c2)c1`, the TGI is > 100 µM.
Regarding `CCCCCCOC(=O)C(N)Cc1ccc(OC)cc1` (stereo unspecified), the TGI was > 100 µM.
In the case of `CC1=C(C)C(=O)c2c(cc3c4ccccc4ccn23)C1=O`, the TGI was > 100 µM.
The compound `Oc1ccc(Cl)cc1Cc1cc(Cl)cc(Cc2cc(Cl)ccc2O)c1O` returned a TGI of 9.73 µM.
Take `CCOC(=O)CCC(NC(=O)N1CCN(c2c(C)nc(C)[nH]c2=O)CC1)C(=O)OCC` (stereo unspecified): the TGI was > 100 µM.
With `COc1ccc(NC(=O)CSc2nnc(Cc3ccccc3)o2)cc1`, the TGI is > 100 µM.
Turning to `O=C(/C=C\c1cccc([N+](=O)[O-])c1)c1ccccc1`, the GI50 was 16.9 µM and the TGI is 37.3 µM.
Consider `CSc1c(C#N)c(O)n(-c2ccc(Cl)cc2)c(=O)c1C#N`, for which the TGI was > 100 µM.
In the case of `COc1ccc2cc(-c3ccc(OC)c(OC)c3)c(=O)oc2c1`, the TGI is > 100 µM.
The same measure, in the same setting: as for `Cn1c(O)c(C=N)c(=O)n(C)c1=O`, the figure is > 100 µM.
Regarding `Oc1c(Cl)cc(C(c2cc(Cl)c(O)c(Cl)c2)C(c2cc(Cl)c(O)c(Cl)c2)c2cc(Cl)c(O)c(Cl)c2)cc1Cl`, the GI50 was 3.52 µM and the TGI was 14.2 µM.
In the case of `CN(C)C(=O)c1nnsc1NN=O`, the TGI is > 100 µM.
